Our source for the inhibition values is ChEMBL document CHEMBL5606460, “ASAP - DENV-2 NS2B-NS3 protease fluorescence single point” (2024).

For orientation: inhibition means the drop in the measured response relative to a control, in per cent.

The target of the assay is Genome polyprotein (dengue virus type 2) (UniProt P29990).
Setting [1] is: Thailand/16681/1984, Concentration 25.0 uM, Number of replicates 1.0.

The whole screen tested about 2,000 compounds, of which about 110 (5.5%) showed an effect of 50% or more. The list shows a part of the results.

For the compound `C[C@@H]1CN(C2CCN(C(=O)C3CCN(c4ccc(C=O)cc4)CC3)CC2)C[C@H](C)O1`, the inhibition under setting [1] came to 12%.

As to `NCc1cccc(NC(=O)[C@]2(NC(=O)OCc3ccccc3)CCOC2)c1`, the inhibition (Thailand/16681/1984, Concentration 49.5 uM, Number of replicates 2.0, Standard deviation 1.426129993733671 %) was -5.37%; the inhibition (Thailand/16681/1984, Concentration 99.01 uM, Number of replicates 2.0, Standard deviation 1.4283546729854701 %) was -5.77%; the inhibition (Thailand/16681/1984, Concentration 198.0 uM, Number of replicates 2.0, Standard deviation 1.6552894897579518 %) was -5.76%. Regarding `O=Cc1ccc(N2CCC(C(=O)N3CCN(C(=O)c4ccco4)CC3)CC2)cc1`, under setting [1], the inhibition worked out at 13.3%. As to `CN(Cc1cccc2ccccc12)C(=O)C1CCN(c2ccc(C=O)cc2)CC1`, the inhibition under setting [1] came out at 11.3%. Consider `C[C@@H](NC(=O)c1cc(Cl)ccc1NS(=O)(=O)c1ccc(Oc2ccccc2Cl)cc1)C1COC1`, for which the inhibition (Thailand/16681/1984, Concentration 49.5 uM, Number of replicates 2.0, Standard deviation 0.4885797549298071 %) is 59.2%; the inhibition (Thailand/16681/1984, Concentration 99.01 uM, Number of replicates 2.0, Standard deviation 0.152624190876378 %) is 68.4%; the inhibition (Thailand/16681/1984, Concentration 198.0 uM, Number of replicates 2.0, Standard deviation 0.02447349481851786 %) was 59.2%. As to `O=C1COc2cccc(CN3CCC(c4c[nH]c5cccnc45)CC3)c2N1`, the inhibition stood at 0.091% (Thailand/16681/1984, Concentration 49.5 uM, Number of replicates 2.0, Standard deviation 3.2596996411683405 %); 1.45% (Thailand/16681/1984, Concentration 99.01 uM, Number of replicates 2.0, Standard deviation 3.614501421414507 %); 2.78% (Thailand/16681/1984, Concentration 198.0 uM, Number of replicates 2.0, Standard deviation 3.7781576131088843 %). With `O=Cc1ccc(N2CCC(C(=O)Nc3cccc(-c4ccccc4)c3)CC2)cc1`, the inhibition under setting [1] came to 9.81%. For `N#CCCN(Cc1cccnc1)C(=O)C1CCN(c2ccc(C=O)cc2)CC1`, the inhibition under setting [1] turned out to be 17.5%. Regarding `N#Cc1ccc(Cl)c(NC(=O)C2CCN(c3ccc(C=O)cc3)CC2)c1`, under setting [1], the inhibition was determined as 12.7%. Regarding `NCc1cccc(NC(=O)[C@H]2c3ccccc3OCCN2C(=O)OCc2ccccc2)c1`, the inhibition (Thailand/16681/1984, Concentration 49.5 uM, Number of replicates 2.0, Standard deviation 1.7656972055296958 %) is -3.82%; the inhibition (Thailand/16681/1984, Concentration 99.01 uM, Number of replicates 2.0, Standard deviation 2.8588695958622563 %) is -2%; the inhibition (Thailand/16681/1984, Concentration 198.0 uM, Number of replicates 2.0, Standard deviation 1.1430363557817578 %) came to 4.7%. For `O=Cc1ccc(N2CCC(C(=O)Nc3ncc(Br)cc3O)CC2)cc1`, under setting [1], the inhibition amounted to 52.8%. As to `Cc1nccn1-c1ccc(NC(=O)C2CCN(c3ccc(C=O)cc3)CC2)cc1`, the inhibition under setting [1] amounted to 16.6%. `CC(C)(C)c1ccc(O)c(NC(=O)C2CCN(c3ccc(C=O)cc3)CC2)c1`: the inhibition under setting [1] amounted to 15.4%. In the case of `Cc1cc(CO)c2cccc(CC(=O)Nc3cccc(C(N)=O)c3)c2n1`, the inhibition (Thailand/16681/1984, Concentration 49.95 uM, Number of replicates 2.0, Standard deviation 0.3351031861891448 %) was 71.5% and the inhibition (Thailand/16681/1984, Concentration 99.9 uM, Number of replicates 2.0, Standard deviation 0.3101738310571331 %) worked out at 94.2%. For the compound `O=Cc1ccc(N2CCC(C(=O)Nc3ccc(-c4ccccc4)cc3)CC2)cc1`, the inhibition under setting [1] came to 7.56%.

Regarding `O=Cc1ccc(N2CCC(C(=O)N3CCN(CCc4ccccc4)CC3)CC2)cc1`, the inhibition under setting [1] turned out to be 33%.

As for `O=Cc1ccc(N2CCC(C(=O)NCc3noc(-c4ccco4)n3)CC2)cc1`, under setting [1], the inhibition came out at 12.6%. Still for that read-out and setting: next, `O=Cc1ccc(N2CCC(C(=O)N3Cc4ccc(Br)cc4C3)CC2)cc1`: 14.2%. On to `CNC(=O)c1cc(Cl)ccc1NS(=O)(=O)c1ccc(CN(C)C)cc1`, for which the inhibition was -1.49% (Thailand/16681/1984, Concentration 49.5 uM, Number of replicates 2.0, Standard deviation 2.702318864967168 %); -0.19% (Thailand/16681/1984, Concentration 99.01 uM, Number of replicates 2.0, Standard deviation 0.41666131566655296 %); 1.72% (Thailand/16681/1984, Concentration 198.0 uM, Number of replicates 2.0, Standard deviation 0.6338418186019992 %).

Turning to `Cc1cc(CO)c2cccc(NCC3CCNCC3)c2n1`, the inhibition is, setting by setting: (Thailand/16681/1984, Concentration 49.95 uM, Number of replicates 2.0, Standard deviation 0.8313641199663653 %) -6.22%; (Thailand/16681/1984, Concentration 99.9 uM, Number of replicates 2.0, Standard deviation 1.3048073716258033 %) 0.772%.

Regarding `Cc1cc(CO)c2cccc(C[C@H](NC(=O)C(=O)c3ccco3)C(=O)O)c2n1`, the inhibition runs as follows: (Thailand/16681/1984, Concentration 49.95 uM, Number of replicates 2.0, Standard deviation 2.1984135254678594 %) 1.13%; (Thailand/16681/1984, Concentration 99.9 uM, Number of replicates 2.0, Standard deviation 0.8113996635889369 %) 5.56%. With `CNC(=O)c1nc(Cl)ccc1NS(=O)(=O)c1ccc(Oc2ccccc2Cl)cc1`, the inhibition came out at 6.34% (Thailand/16681/1984, Concentration 49.5 uM, Number of replicates 2.0, Standard deviation 0.5855266102241418 %); 6.62% (Thailand/16681/1984, Concentration 99.01 uM, Number of replicates 2.0, Standard deviation 0.14494638377684543 %); 4.4% (Thailand/16681/1984, Concentration 198.0 uM, Number of replicates 2.0, Standard deviation 0.056926230997118174 %). With `O=Cc1ccc(N2CCC(C(=O)N3CC[C@@]4(O)CCCC[C@H]4C3)CC2)cc1`, the inhibition under setting [1] amounted to 13.8%. Take `CNC(=O)c1cc(Cl)ccc1NS(=O)(=O)c1ccc(OC)nc1`: the inhibition reads like this: (Thailand/16681/1984, Concentration 49.5 uM, Number of replicates 2.0, Standard deviation 0.9512953587010552 %) -0.281%; (Thailand/16681/1984, Concentration 99.01 uM, Number of replicates 2.0, Standard deviation 1.3945954055764564 %) 0.501%; (Thailand/16681/1984, Concentration 198.0 uM, Number of replicates 2.0, Standard deviation 1.9130696672739496 %) 1.69%.
